Out of some 390,000 compounds screened, about 150 (0.038%) were called active. The inconclusive results got no clear call from the source; some entries with a clear call stand among them for comparison. Calls follow the shape of the dose curve; as a rule, active = well fitted inhibition curve with a large enough effect; inconclusive = small, poorly fitted or top-dose-only effect; inactive = no such curve, though single readings can be large or run the other way. Potencies beside an inconclusive call are fits to weak or partial responses and may not hold up.
What follows are compounds tested against Regulator of G-protein signaling 4 (Homo sapiens) (UniProt P49798) (assay: Inhibitors of Regulator of G Protein Signaling (RGS) 4: qHTS). Settings: Transcreener GDP fluorescence polarization, RGS4-accelerated GTP hydrolysis; series mostly up to 114 µM; activity change, negative = inhibition: at the top concentration.
Procedure, shortened: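 MLSMR compounds (23 nl, pin-transferred) preincubated 10 min at room temperature with a 500nM (2x) first reagent, then RGS4 at 900nM (2x) plus Transcreener GDP mix added; fluorescence polarization (620/688 nm) read before and after 90 min at 30 °C.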
% is scaled to controls: 0 for no effect and ±100 for the full control effect; potency is read from the fitted curve at half-maximal effect; tags tell the direction and shape of the fitted curve.
Also: nearly all actives have a fitted effect of over 75% in size.

Chain of UniProt P49798 (P49798 whole entry, looked up): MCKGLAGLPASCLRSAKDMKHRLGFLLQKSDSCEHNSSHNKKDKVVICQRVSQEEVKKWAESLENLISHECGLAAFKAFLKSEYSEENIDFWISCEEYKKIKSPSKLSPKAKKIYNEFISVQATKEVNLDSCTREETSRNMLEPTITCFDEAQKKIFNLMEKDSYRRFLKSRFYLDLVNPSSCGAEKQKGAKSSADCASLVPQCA

SMILES	Potency	activity change, negative = inhibition
CCCNC(=O)c1ccc(N2CCC3(CC2)CC(c2ccccc2)=NO3)c(NC(=O)c2cccc(OC)c2)c1	inconclusive: 89.1 µM [inhibitor, single point]	
Cc1oc2ccc(OS(C)(=O)=O)cc2c1C(=O)OC(C)C	inconclusive: 50.1 µM [inhibitor, partial curve, poor fit]	
CC(/C=N/n1c(C2CCCCC2)n[nH]c1=S)=C\c1ccccc1	inconclusive: 79.4 µM [inhibitor, partial curve, poor fit]	
CN(C)CCNC(=O)Cn1ccc2cc(S(=O)(=O)N3CCCCCC3)ccc21	inactive	
CC[N+](C)(C)CC/C=C1/c2ccccc2Sc2ccc(Cl)cc21		inactive: 7.52%
Cc1nn(C)c(C)c1/C=C/C(=O)c1ccc(Cl)cc1Cl		inactive: -20%
Cc1nc(NC(=O)c2ccccc2)sc1-c1csc(Nc2ccc(C(=O)O)cc2)n1	inconclusive: 17.8 µM [inhibitor, full curve, poor fit]	
CC(=O)Oc1cccc(/C=N\NC(=O)C(=O)N/N=C/c2cccc(OC(C)=O)c2)c1	inconclusive: 89.1 µM [inhibitor, single point]	
Cc1nc(Nc2cccc(F)c2)c2oc3ccccc3c2n1		inactive: -6.87%
COc1cccc(/C=N/Nc2snc(SC)c2C#N)c1O	inconclusive: 28.2 µM [inhibitor, full curve, poor fit]	
O=C(NCc1ccc(F)cc1)C1CCCN1S(=O)(=O)c1cccc2nsnc12 (centres undefined)		inactive: -6.38%
CC1(OC(=O)c2ccco2)C(=O)C=C2C=C(C3CC3)OC=C2C1=O (centres undefined)	inconclusive: 44.7 µM [inhibitor, partial curve, poor fit]	
Cc1ccc(OCC(O)Cn2c(N)nc3c2c(=O)n(C)c(=O)n3C)cc1 (centres undefined)		inactive: 37.9%
N#CCc1c(C#N)c(N)nc(N2CCN(C=O)CC2)c1C#N	inconclusive: 17.8 µM [inhibitor, full curve, poor fit]	
Cc1ccccc1N1CCN(C(=O)c2ccccc2NC(=O)c2ccccc2C(=O)O)CC1	inconclusive: 50.1 µM [inhibitor, partial curve, poor fit]	
CC(Oc1ccccc1)C(=O)N1CCN(c2ccc(N3CCOCC3)nn2)CC1 (centres undefined)		inactive: 30%
Cc1ccc(-n2cc[nH]c2=S)c(C)c1	inconclusive: 89.1 µM [inhibitor, partial curve, poor fit]	
Cc1csc2nc(COC(=O)c3ccc(Cl)c([N+](=O)[O-])c3)cc(=O)n12	inconclusive: 89.1 µM [inhibitor, single point]	
Cc1ccc(-c2nnn(CC(=O)NCC3COCCO3)n2)o1 (centres undefined)	inconclusive: 70.8 µM [inhibitor, partial curve, poor fit]	
